± gives the standard deviation. Over roughly 3,700 sequences, “pre-steady-state target cleavage rate” has its median near 0.02; the highest 2% begin near 0.23. This is a selection; strong and weak results do not stand in their true shares.
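Further: 1 nM active piRISC with 0.1 nM target library at 33 °C single turnover.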

The test system of this test is MILI (PIWIL2) piRISC loaded with Kctd7 piRNA (26 nt). The test is described as follows: pre-steady-state target cleavage rate (min^-1); MIWI and MILI are mouse PIWI proteins and EfPiwi is from a freshwater sponge; tags in brackets are library labels; higher = faster piRNA-guided slicing of the target. The note with it: guide: Kctd7 piRNA 5'p-UGUUAAUCUCUCAGAGAAGGUGACAG; auxiliary factor: 500 nM mouse GTSF1. In short, it runs like this: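 The pre-steady-state cleavage rate was derived from a burst-and-steady-state fit of Cleave-'n-Seq data. For these assays, 1 nM active affinity-purified piRISC loaded with a single synthetic guide was mixed with […] a transcribed, DNA-blocked target RNA library in HEPES–potassium acetate buffer at 33 °C, with or without 500 nM GTSF1 partner protein, for 0–8 or 0–960 min. Sequencing counts of uncleaved targets were normalised to depth and to weakly complementary targets, and k3 was capped at 0.0001 min^-1 after three trials were pooled.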
UAGUGACACACGUUCUCUGAGAGAUUAUCA: the “pre-steady-state target cleavage rate” value stood at 0.0622 ± 0.014.

As for UAGUGACACACCUUCUCUGUGAGAUUUUGA, the “pre-steady-state target cleavage rate” value stood at 0.0136 ± 0.0053.

On to UAGUCUGUCCCUUCUCUGAGAGAUUAACA, for which the “pre-steady-state target cleavage rate” value came out at 0.198 ± 0.018.

For UAGUGACUCACCUAGACUGAGAGAUUAACA, the “pre-steady-state target cleavage rate” value was 0.0192 ± 0.0063.

On to UAGUGACAGUGGAAGAGAGAGAGAUGAACA, for which the “pre-steady-state target cleavage rate” value is under 0.0001.

Turning to UAGUGACAGUGCUUCUCUGAGAGUAAAACA, the “pre-steady-state target cleavage rate” value is under 0.0001.

For the sequence UAGUGACAGUGGAUUUCUGAGAGAUUAACA, the “pre-steady-state target cleavage rate” value was found to be 0.00273 ± 0.0019.

Take UAGUCUGUCACCUUCACUGAGAGAUUUACA: the “pre-steady-state target cleavage rate” value worked out at 0.185 ± 0.045.

Consider UAGUGAGUGACCAUCUCUGAGAGAUUAACA, for which the “pre-steady-state target cleavage rate” value was determined as 0.0822 ± 0.011.

As for UAGUGUGUGACCUUCUCUCAGAGAUUAACA, the “pre-steady-state target cleavage rate” value was 0.0403 ± 0.011.

On to UAGUCUGUCACCUACUCUCAGAGAUUAACA, for which the “pre-steady-state target cleavage rate” value is 0.0458 ± 0.0055.

Take UAGUCUGUCACCUUCUCUGAGAGCUUAACA: the “pre-steady-state target cleavage rate” value is 0.148 ± 0.016.

As for UAGUCUGUCUGCUUCUCUGAGAGAUUAAGA, the “pre-steady-state target cleavage rate” value turned out to be 0.0318 ± 0.0048.

As for UAGUGUCUCACCUUCUCUGAGAGUUUAACA, the “pre-steady-state target cleavage rate” value amounted to 0.286 ± 0.038.

As for UAGUGACAGUGGAUCUCUGAGAGAUUGAACA, the “pre-steady-state target cleavage rate” value is under 0.0001.

Turning to UAGUCUGUGACCUUGUCUGAGAGAUUAACA, the “pre-steady-state target cleavage rate” value was 0.093 ± 0.011.

Take UAGUGUGUCUCCUUCUCAGAGAGAUUAACA: the “pre-steady-state target cleavage rate” value was determined as 0.0522 ± 0.011.

Take UAGUCUGUCACCUUCUGUGAGAGAUAAACA: the “pre-steady-state target cleavage rate” value is 0.0199 ± 0.0068.

Turning to UAGUGACAGACCGUUCUCUGAGAGAUUAACA, the “pre-steady-state target cleavage rate” value stood at 0.0665 ± 0.0095.

On to UAGUGACUCACCUUCUCUGAGAGAUAAACA, for which the “pre-steady-state target cleavage rate” value was 0.141 ± 0.023.

UAGUGACAGUGGUUUCUCUGAGAGAUUAACA: the “pre-steady-state target cleavage rate” value was 0.0109 ± 0.0027.

For UAGUGACUCAGCUUCUCUGUGAGAUUAACA, the “pre-steady-state target cleavage rate” value was 0.0297 ± 0.0038.

For the sequence UAGUCUGUCACCUUCUCUGAGAGUAUUAACA, the “pre-steady-state target cleavage rate” value turned out to be 0.173 ± 0.013.

With UAGUGACAGUGGUUCUAUGAGAGAUUAACA, the “pre-steady-state target cleavage rate” value was found to be 0.00489 ± 0.0027.

Consider UAGUGACAGUGCUUUCUGAGAGAUUAACA, for which the “pre-steady-state target cleavage rate” value was determined as 0.00706 ± 0.0028.

With UAGUGACACACGUUCUCUGAGAGAUAAACA, the “pre-steady-state target cleavage rate” value is 0.0273 ± 0.0051.

On to UAGUGACACACCUCCUCUGAGAGAUUAACA, for which the “pre-steady-state target cleavage rate” value was 0.145 ± 0.0088.

As for UAGUGACAGUCGUUCUGUGAGAGAUUAACA, the “pre-steady-state target cleavage rate” value is 0.00579 ± 0.0023.

UAGUGACACAGCUUCUGUGAGAGAUUAACA: the “pre-steady-state target cleavage rate” value was 0.05 ± 0.011.

In the case of UAGUGCGUCACCUUCUCUGAGAGAUUAACA, the “pre-steady-state target cleavage rate” value was found to be 0.199 ± 0.013.

On to UAGUGACAGACCUUCUGAGAGAGAUUAAGA, for which the “pre-steady-state target cleavage rate” value was determined as 0.00483 ± 0.0039.

In the case of UAGUGAGUCACCUUGAGUGAGAGAUUAACA, the “pre-steady-state target cleavage rate” value was 0.0638 ± 0.0084.

On to UAGUGACUCACCUUCUCUGAGCGAUUAACA, for which the “pre-steady-state target cleavage rate” value is 0.0117 ± 0.0056.

With UAGUGACUCACCUUCUCUGAGAGAUUUACA, the “pre-steady-state target cleavage rate” value was 0.113 ± 0.017.

For UAGUCUGUCACGUUCUCUGAGAGUUUAACA, the “pre-steady-state target cleavage rate” value was found to be 0.0505 ± 0.0053.

Consider UAGUCUGUCUCCUUCUCUGAGAGAUUAUCA, for which the “pre-steady-state target cleavage rate” value amounted to 0.0975 ± 0.013.

With UAGUGAGUCACCUUCUCUGAGAGAUUAUACA, the “pre-steady-state target cleavage rate” value was found to be 0.18 ± 0.036.

As for UAGUGACAGUGGAAGUCUGAGAGAUUACCA, the “pre-steady-state target cleavage rate” value was under 0.0001.

In the case of “UAGUGACAGACCUUCUCUGAGAGAUUAACU [g2:g21:cont:t1U]”, the “pre-steady-state target cleavage rate” value was 0.0506 ± 0.009.

For UAGUGAGUCACCUUGUCUGAGAGAUUUUGA, the “pre-steady-state target cleavage rate” value is 0.0161 ± 0.0098.

Consider UAGUCUGUCACCUUCUCUGAGAGAUUACACA, for which the “pre-steady-state target cleavage rate” value was determined as 0.153 ± 0.022.

As for UAGUGACACACCUUCUCAGAGAGUUUAACA, the “pre-steady-state target cleavage rate” value stood at 0.0969 ± 0.035.

Turning to UAGUGACAGUGGAAGAGACAUAGAUUAACA, the “pre-steady-state target cleavage rate” value is under 0.0001.

As to UAGUGACAGUGCUUCUCUAAGAGAUUAACA, the “pre-steady-state target cleavage rate” value was determined as 0.045 ± 0.0054.

Consider UAGUGUCAGACCUUCUCUGAGAGAUUAUGA, for which the “pre-steady-state target cleavage rate” value worked out at 0.00942 ± 0.0043.

As to UAGUGACACGACCUUCUCUGAGAGAUUAACA, the “pre-steady-state target cleavage rate” value was 0.11 ± 0.0086.

In the case of UAGUGACACUCCUUCUCUGAGAGAUUAUCA, the “pre-steady-state target cleavage rate” value came out at 0.0861 ± 0.018.

In the case of UAGUGACUCACCUUCUCUGAGAGAUUGAACA, the “pre-steady-state target cleavage rate” value is 0.173 ± 0.029.

Turning to UAGUGAGACACCUUCUCUGAGAGAUAAACA, the “pre-steady-state target cleavage rate” value was found to be 0.075 ± 0.017.

Take UAGUGACAGUCCUUCUUGAGAGAUUAACA: the “pre-steady-state target cleavage rate” value amounted to 0.0069 ± 0.004.

Take UAGUGUGUCAUCCUUCUCUGAGAGAUUAACA: the “pre-steady-state target cleavage rate” value turned out to be 0.0711 ± 0.01.

For the sequence UAGUGUGUCACCUUCUCAGAGAGAUUUUGA, the “pre-steady-state target cleavage rate” value came out at 0.109 ± 0.037.

For the sequence UAGUGAGUCACCUUCUCUGACAGAUUUACA, the “pre-steady-state target cleavage rate” value was determined as 0.00705 ± 0.0055.

In the case of UAGUGACAGUCCUUCUCUGAGAGAUAAACA, the “pre-steady-state target cleavage rate” value worked out at 0.00798 ± 0.0035.

Regarding UAGUCUGUCUGGUUCUCUGAGAGAUUAACA, the “pre-steady-state target cleavage rate” value turned out to be 0.0616 ± 0.0055.

For the sequence UAGUGUGUCACCAUCUCUGACAGAUUAACA, the “pre-steady-state target cleavage rate” value came to 0.0479 ± 0.0079.

For UAGUGUCUCACCUUCUCUGAGAGAUUAUGA, the “pre-steady-state target cleavage rate” value was 0.0163 ± 0.0063.

Take UAGUCUGACACCUUCUCUGUGAGAUUAACA: the “pre-steady-state target cleavage rate” value amounted to 0.0387 ± 0.0027.

Consider UAGUGAGUCCCCUUCUCUGAGAGAUUAACA, for which the “pre-steady-state target cleavage rate” value was 0.214 ± 0.021.

UAGUCUGUCACCUUCUCACUGAGAUUAACA: the “pre-steady-state target cleavage rate” value came to 0.0186 ± 0.0032.

UAGUCUGACACCUUCUCUGAGAGAUAAACA: the “pre-steady-state target cleavage rate” value came to 0.0688 ± 0.013.

Regarding UAGUGACAGUGCUUCUGUGAGACAUUAACA, the “pre-steady-state target cleavage rate” value was 0.0047 ± 0.0025.

Turning to UAGUGACACACCUUCUCUGACAGAUUAACA, the “pre-steady-state target cleavage rate” value turned out to be 0.0396 ± 0.0072.

With UAGUGACUCACCUUCACUGAGAGAUAAACA, the “pre-steady-state target cleavage rate” value stood at 0.0572 ± 0.014.

On to UAGUCUGUCACCUUCUCUGAAGAGAUUAACA, for which the “pre-steady-state target cleavage rate” value is 0.0126 ± 0.004.

For UAGUGACUCUCCAUCUCUGAGAGAUUAACA, the “pre-steady-state target cleavage rate” value is 0.0616 ± 0.0058.

With UAGUGACUCACCUUCUCUGAGAGAUUACACA, the “pre-steady-state target cleavage rate” value is 0.125 ± 0.023.

In the case of UAGUGACAGACCUUUCUCUGAGAGAUUAACA, the “pre-steady-state target cleavage rate” value was determined as 0.061 ± 0.012.

With UAGUGACACAGCUUCUCUGAGAGUUUAACA, the “pre-steady-state target cleavage rate” value came to 0.0292 ± 0.01.

Consider UAGUGACAGACCUUACUCUGAGAGAUUAACA, for which the “pre-steady-state target cleavage rate” value was 0.0391 ± 0.0052.

As for UAGUGUGUCACCUUCUCUGAGAGACUUAACA, the “pre-steady-state target cleavage rate” value was determined as 0.189 ± 0.025.

For the sequence UAGUGACUCACUUUCUCUGAGAGAUUAACA, the “pre-steady-state target cleavage rate” value stood at 0.166 ± 0.0089.

The values are drawn from the supplement of paper PMC10338343.
